# Data from paper PMC3813556, “Probing the Dynamic Process of Encapsulation in Escherichia coli GroEL” (PLoS ONE, 2013).
# B1: AEDANS-labelled, acid-unfolded wild type GroEL (natural protein)
# chain: not shown
# modifications: AEDANS label from IAEDANS, 0.2 to 0.5 label per GroELwt subunit; labelled residues not stated
# notes: wild type GroEL, E. coli, used unfolded as a model substrate protein; Stood in the assay as an unfolded subunit, not as the oligomer; also called AEDANS-GroELwt; GroELwt; source: GroELwt labelled with IAEDANS, denatured in 20 mM glycine-HCl buffer, pH 2.0, for 1 h at 25°C
# Molecular target: T1, GroEL D398A-RW (E. coli, UniProt P0A6F5, D398A | R231W)
# T1 construct: GroEL, E. coli, D398A mutant (greatly diminished ATPase activity) with the R231W mutation; Made by Quikchange site directed mutagenesis
# Assay: FRET or BRET; stopped-flow intermolecular FRET from the apical domain tryptophan of the GroEL mutant to prebound acid-unfolded AEDANS-GroELwt (equimolar); decrease of FRET after addition of ATP and GroES
# Details: both partners purified
binder,measurement,value
B1,k of PhaseFRET2 (rate of release of the bound unfolded protein),0.18 ± 0.034 s⁻¹
same,k of PhaseFRET (rate of release of the bound unfolded protein),1.8 ± 0.46 s⁻¹
